Reference: the supplement of paper PMC11417369
± gives the standard deviation of the averaged measurements. Some of the results follow.

test system: PfAP2-LT AP2 domain (GST-tagged); assay: gcPBM binding intensity (ln(normalized median fluorescence intensity)); higher = stronger DNA binding
Summary of the method: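 For binding intensity, the highest Masliner-normalised natural-log median intensity across replicate spots of either probe orientation was taken. Protein bound to the array was stained with Alexa488 anti-GST antibody and scanned at 488 nm. The protein, GST-tagged P. falciparum DNA-binding domains from E. coli at about 25 μg on average, had been applied for 1 h to an Agilent 4 × 180k array of primer-extended double-stranded 36-bp intergenic genomic probes and negative controls.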

Row | Sequence | gcPBM binding intensity (ln)
1 | TAATGAGGAAAAAGTGTGTTAAGATTTTATAATTTA [GTGCAC_negctrl_site608] | 8.56 ± 0.42
2 | TGAACATGTTAAAATAAACACACAGCTAAGGTTTTT [CACACA_site7934] | 8.94 ± 0.4
3 | ATATATATATTAACAATACACACGTGTATACCTTAT [CACACA_site2217] | 9.2 ± 0.4
4 | TATCATATAAATACATGTACATATTTGGAAAATAAT [XGTACX_site5373] | 8.84 ± 0.38
5 | TCAGTTAATGTATATGTACACACGGGGTGTATATAT [CACACA_site9103] | 9.28 ± 0.19
6 | ATATATATATTAAGGGGTACGTAAAAAATTGGGAAG [XGTACX_site7322] | 8.95 ± 0.42
7 | AAATTATATCCCCTTTGTACTTACAGATCTTTATAC [XGTACX_site8163] | 9.06 ± 0.44
8 | ATAAATAAATACATATGTACATATATATATATATAT [XGTACX_site7145] | 9.64 ± 0.26
9 | ATAAAATACAGATAAACACACATATAAACACCCATA [CACACA_site5381] | 9.56 ± 0.32
10 | CTTTATTTTTTATACACACACAATATGTATAAATAT [CACACA_site7638] | 9.14 ± 0.3
11 | TACATATTTTTTATGTGTACATATTTTTTATGTGTG [XGTACX_site444] | 8.95 ± 0.42
12 | TTCTTTTTTCTTTATGGTACGTGTAATATATATCAA [XGTACX_site7960] | 8.82 ± 0.45
13 | CCCAATAATTAAACAACACACATATATATATGTAAT [CACACA_site3084] | 9.36 ± 0.34
14 | AAAATATAAATATATTGTACTGTTATATAATAAAAT [XGTACX_site2132] | 8.57 ± 0.45
15 | AATGTGAAATATAAATGTACATAAATATATATATAT [XGTACX_site8710] | 9.25 ± 0.35
16 | TAACTATCATGTATTACACACAATATTTATTATAGA [CACACA_site7301] | 8.76 ± 0.35
17 | TTTATAAAATTATTTGCATGTAACAATTATAAATTG [TGCATGCA_site1026] | 8.4 ± 0.5
18 | TTTTTTTTTCTTTCTCTTTAAATATTAATTAAAAAA [GTGCAC_negctrl_site90] | 7.83 ± 0.45
19 | TATATTTATTTATATACACACATATTTATAAATATA [CACACA_site7047] | 8.71 ± 0.44
20 | AGATTTAAATATCATACACACTTTATCTATAATACA [CACACA_site6581] | 8.64 ± 0.39
21 | CAAAATTGACATGACGCACACAAGTGTAGATATTTT [CACACA_site1250] | 9.27 ± 0.42
22 | TAGTTGTTTATAACACGTTGACAGAAATGTTATGTA [GTGCAC_negctrl_site624] | 8.64 ± 0.35
23 | GTACAAAAATAAATTGCACACATTTTAATAAAAAAA [CACACA_site2130] | 8.84 ± 0.47
24 | TCTCTCTTATAAAATACACACGAACAATCATATTAT [CACACA_site8065] | 8.73 ± 0.38
